Here are results for 115 sequences from the BET-seq Pho4 binding data (Le et al. 2018).

This is one part of the list. These are noisy estimates, calculated here from bound and input reads.

In this test the target is T1, Pho4 (S. cerevisiae) (UniProt P07270).
T1 sequence: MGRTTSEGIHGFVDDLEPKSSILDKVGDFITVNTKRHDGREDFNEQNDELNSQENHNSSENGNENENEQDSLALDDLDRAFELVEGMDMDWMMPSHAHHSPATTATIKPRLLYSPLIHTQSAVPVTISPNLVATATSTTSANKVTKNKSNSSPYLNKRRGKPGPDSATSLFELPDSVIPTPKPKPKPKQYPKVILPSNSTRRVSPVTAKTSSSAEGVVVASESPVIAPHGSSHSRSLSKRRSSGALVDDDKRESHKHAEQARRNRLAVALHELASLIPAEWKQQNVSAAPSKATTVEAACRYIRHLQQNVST
Description: relative binding free energy (BET-seq); higher = weaker binding. The conditions noted are these: reference: library average.
As for TGTGACACGTGTTTGT, the “relative binding free energy” value amounted to 0.03 kcal/mol.
As for TGGTGCACGTGGACGA, the “relative binding free energy” value was -0.07 kcal/mol.
GGGTCCACGTGTTCTG: the “relative binding free energy” value came out at 0.08 kcal/mol.
With TGATCCACGTGGTGAG, the “relative binding free energy” value is -0.02 kcal/mol.
The value for TGTCACACGTGTATAT was 0.09 kcal/mol; that for AATTGCACGTGGTAGT was -0.11 kcal/mol.
The value for GTGAACACGTGGAGGA was -0.06 kcal/mol; that for AGTTGCACGTGAGCGA was 0.25 kcal/mol.
On to GGCCACACGTGGTGTT, for which the “relative binding free energy” value was 0.06 kcal/mol.
For the sequence GCGATCACGTGGGTGT, the “relative binding free energy” value is -0.07 kcal/mol.
GTAGCCACGTGTGGCG: the “relative binding free energy” value is 0.02 kcal/mol.
TTGATCACGTGGTTAA: the “relative binding free energy” value was 0.11 kcal/mol.
With AAGGGCACGTGGTCCG, the “relative binding free energy” value came to 0.01 kcal/mol.
The value for TGATGCACGTGTCGTC was 0.08 kcal/mol; that for TGGACCACGTGCTGGG was -0.06 kcal/mol; that for AGGGACACGTGGGCAG was -0.05 kcal/mol.
On to GTCGGCACGTGGCGGC, for which the “relative binding free energy” value is -0.1 kcal/mol.
The result for TACGTCACGTGGGGCA reads -0.07 kcal/mol; that for GGATTCACGTGCGTGA, 0.19 kcal/mol; that for ATGGTCACGTGGATAT, 0.12 kcal/mol.
Regarding TATGACACGTGTGTTA, the “relative binding free energy” value was -0.06 kcal/mol.
Consider GTGGTCACGTGGTGTT, for which the “relative binding free energy” value turned out to be 0.09 kcal/mol.
For TGTCACACGTGGGCGT, the “relative binding free energy” value is -0.14 kcal/mol.
Consider CTTTTCACGTGTCGTT, for which the “relative binding free energy” value is 0.43 kcal/mol.
ATCATCACGTGGGAGG: the “relative binding free energy” value came to 0.11 kcal/mol.
GTCGCCACGTGGCGGG: the “relative binding free energy” value was -0.14 kcal/mol.
Regarding GATGGCACGTGTGGTC, the “relative binding free energy” value came out at 0.02 kcal/mol.
As to TGACTCACGTGGTGGA, the “relative binding free energy” value turned out to be 0.03 kcal/mol.
The value for CTTAACACGTGTGTGT was -0.05 kcal/mol.
Turning to TATTGCACGTGATCGT, the “relative binding free energy” value worked out at 0.05 kcal/mol.
The result for GCGGTCACGTGTCGGG reads 0.15 kcal/mol; that for TAGGCCACGTGGTGAT, -0.25 kcal/mol; that for TTTAGCACGTGGGGTT, -0.14 kcal/mol.
As to GAGAACACGTGTTGGG, the “relative binding free energy” value is 0.08 kcal/mol.
As for AAGCACACGTGGGAGG, the “relative binding free energy” value was 0.13 kcal/mol.
As for GGGCACACGTGATGGG, the “relative binding free energy” value stood at 0.24 kcal/mol.
On to TAGATCACGTGGTTTG, for which the “relative binding free energy” value worked out at 0.14 kcal/mol.
The value for GTGAACACGTGTCGGA was 0.16 kcal/mol; that for TGCTGCACGTGGGTGA was -0.11 kcal/mol; that for CAGTTCACGTGTGTTA was 0.4 kcal/mol.
With AGGTACACGTGCGGGC, the “relative binding free energy” value is 0.07 kcal/mol.
GTTATCACGTGAAGGG: the “relative binding free energy” value came to 0.39 kcal/mol.
On to TTAAGCACGTGTTTGC, for which the “relative binding free energy” value was -0.18 kcal/mol.
Turning to TGTAGCACGTGAAGTT, the “relative binding free energy” value is 0.2 kcal/mol.
On to TGGGTCACGTGCGCGG, for which the “relative binding free energy” value was -0.09 kcal/mol.
ATGAACACGTGAGTAT: the “relative binding free energy” value was 0.29 kcal/mol.
In the case of GTTAGCACGTGCGTAT, the “relative binding free energy” value was -0.15 kcal/mol.
As to ATGTACACGTGATGTT, the “relative binding free energy” value turned out to be 0.14 kcal/mol.
On to GGTGTCACGTGCAGTG, for which the “relative binding free energy” value came out at 0.12 kcal/mol.
The value for GTCTACACGTGGGTTA was 0.1 kcal/mol.
On to ATGTGCACGTGCGATT, for which the “relative binding free energy” value was -0.02 kcal/mol.
As to ACAGACACGTGGGGGT, the “relative binding free energy” value was -0.13 kcal/mol.
In the case of GAGGTCACGTGAGGGT, the “relative binding free energy” value is 0.27 kcal/mol.
As to ATAGTCACGTGTTGGA, the “relative binding free energy” value came out at 0.16 kcal/mol.
For TTTGACACGTGGGGCC, the “relative binding free energy” value was 0.01 kcal/mol.
In the case of TGCGGCACGTGGCAGT, the “relative binding free energy” value was -0.18 kcal/mol.
Take TTCAGCACGTGGTGGC: the “relative binding free energy” value was -0.03 kcal/mol.
In the case of TTTTTCACGTGAGCAT, the “relative binding free energy” value is 0.34 kcal/mol.
Turning to TGTGTCACGTGATGAT, the “relative binding free energy” value amounted to 0.27 kcal/mol.
The result for TATTCCACGTGATGTA reads 0.11 kcal/mol; that for TTGCACACGTGTGTTC, 0.08 kcal/mol; that for TTCATCACGTGAGGTG, 0.36 kcal/mol.
On to TTCAGCACGTGGAGTG, for which the “relative binding free energy” value is -0.02 kcal/mol.
The value for ACGATCACGTGTTAGG was 0.14 kcal/mol; that for CCATTCACGTGGGGGG was 0.17 kcal/mol; that for AGTTGCACGTGTGGTC was 0.13 kcal/mol.
The value for GGTCTCACGTGGAGTG was 0.26 kcal/mol.
Consider TGAGGCACGTGATAAT, for which the “relative binding free energy” value is 0.01 kcal/mol.
The result for AGCGGCACGTGCTGTT reads -0.23 kcal/mol.
The result for GATGTCACGTGTGTTT reads 0.23 kcal/mol; that for GTCGGCACGTGCAGTT, -0.07 kcal/mol; that for AATAACACGTGTGAGG, 0.17 kcal/mol.
Take TGCCCCACGTGGGGTG: the “relative binding free energy” value is -0.3 kcal/mol.
In the case of ATTTACACGTGGTGTT, the “relative binding free energy” value worked out at 0.03 kcal/mol.
Consider CGCGGCACGTGTTTGG, for which the “relative binding free energy” value is -0.21 kcal/mol.
The value for TGTGTCACGTGCACGA was 0.11 kcal/mol.
Regarding GTTCTCACGTGAGAGG, the “relative binding free energy” value turned out to be 0.36 kcal/mol.
As for AGGTACACGTGGCTTT, the “relative binding free energy” value was -0.09 kcal/mol.
The result for GTATTCACGTGGCGAG reads 0.21 kcal/mol; that for TCAGTCACGTGTGGGG, 0.08 kcal/mol.
In the case of GTGTTCACGTGTGGTA, the “relative binding free energy” value was found to be 0.32 kcal/mol.
The value for TGGTGCACGTGACCGT was 0.08 kcal/mol; that for ATTCACACGTGAGTGG was 0.17 kcal/mol; that for AGGGACACGTGAAGTT was 0.3 kcal/mol.
As to ATGGTCACGTGGGACA, the “relative binding free energy” value was 0.05 kcal/mol.
Take CTTTGCACGTGGGCGA: the “relative binding free energy” value was -0.21 kcal/mol.
In the case of AGTTGCACGTGCTCGT, the “relative binding free energy” value is -0.07 kcal/mol.
For TTTGCCACGTGACGGT, the “relative binding free energy” value was -0.07 kcal/mol.
In the case of AGTATCACGTGTCGGC, the “relative binding free energy” value was 0.12 kcal/mol.
Take CACGGCACGTGGGGTA: the “relative binding free energy” value is -0.33 kcal/mol.
The result for AGGGACACGTGGCAGG reads -0.09 kcal/mol.
The value for TATTTCACGTGGGCTT was 0.25 kcal/mol; that for ATTATCACGTGCGATT was 0.19 kcal/mol.
With TACGACACGTGTGGGA, the “relative binding free energy” value amounted to 0.11 kcal/mol.
Take GTGGACACGTGGTGAT: the “relative binding free energy” value was determined as 0.15 kcal/mol.
In the case of CGTTGCACGTGCGTTG, the “relative binding free energy” value is -0.17 kcal/mol.
The value for TTCTACACGTGGTAGG was 0.04 kcal/mol; that for GTCATCACGTGTATAG was 0.19 kcal/mol; that for GTGAGCACGTGTTGAA was -0.1 kcal/mol.
On to TTGGACACGTGAAAGG, for which the “relative binding free energy” value is 0.23 kcal/mol.
The value for AATGTCACGTGCGTAT was -0.05 kcal/mol; that for GGATGCACGTGTTCAT was 0.22 kcal/mol; that for ATAAGCACGTGGGAGT was -0.13 kcal/mol.
Regarding ATGAGCACGTGGATGA, the “relative binding free energy” value was -0.08 kcal/mol.
TATGGCACGTGTCGGG: the “relative binding free energy” value is -0.04 kcal/mol.
Regarding TGGTCCACGTGTTTGC, the “relative binding free energy” value worked out at 0.04 kcal/mol.
The value for AGGGTCACGTGGATAG was 0.15 kcal/mol; that for GTTTTCACGTGGACTG was 0.3 kcal/mol; that for GGTCACACGTGGGCGT was 0.01 kcal/mol.
In the case of GATATCACGTGTAGGA, the “relative binding free energy” value was 0.22 kcal/mol.
With TAGTGCACGTGGGAGA, the “relative binding free energy” value is -0.03 kcal/mol.
For the sequence ATGTTCACGTGCGTTA, the “relative binding free energy” value came out at 0.31 kcal/mol.
The value for GTTTGCACGTGGTGAG was 0.01 kcal/mol.
In the case of TTGTACACGTGGAGCG, the “relative binding free energy” value was 0.07 kcal/mol.
As to GGGGACACGTGTGGCC, the “relative binding free energy” value was determined as 0.12 kcal/mol.
